For assay [1], the target named is T1, recombinant human OX40L protein (R&D Systems, cat. #1054-OX) (human, UniProt P23510 51-183).
T1 sequence: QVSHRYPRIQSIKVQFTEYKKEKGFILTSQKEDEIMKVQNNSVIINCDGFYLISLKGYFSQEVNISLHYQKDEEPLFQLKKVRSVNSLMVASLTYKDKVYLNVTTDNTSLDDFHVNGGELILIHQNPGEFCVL
In words: cell-based or functional assay.

The next assay has as its target T2, AVI-GST-His6-hOX40L (human, UniProt P23510 51-183).
T2 sequence: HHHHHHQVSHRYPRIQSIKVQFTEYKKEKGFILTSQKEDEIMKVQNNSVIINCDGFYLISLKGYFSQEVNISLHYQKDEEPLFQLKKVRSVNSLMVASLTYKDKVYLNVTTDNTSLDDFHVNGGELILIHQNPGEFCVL
Put plainly: cell-based or functional assay.

The target in assay [2] is T3, recombinant cynomolgus monkey OX40L (Novoprotein cat. #CP72) (cynomolgus monkey, UniProt P23510 51-183 (human entry), limits assumed).
T3 construct: Bought protein; also called cynomolgus OX40L
T3 chain: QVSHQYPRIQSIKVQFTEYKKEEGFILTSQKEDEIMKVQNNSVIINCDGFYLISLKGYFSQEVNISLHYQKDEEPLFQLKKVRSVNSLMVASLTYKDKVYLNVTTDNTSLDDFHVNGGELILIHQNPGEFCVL
In words: summary of flow cytometry, SPR and BLI. (Flow cytometry measures light scatter and fluorescence of single cells or particles in a stream.)

The target of assay [3] is T4, full-length human OX40L on the cell surface (human, UniProt P23510 1-183).
T4 construct: also called CHO-S-huOX40L; OX40L on MDDCs
T4 sequence: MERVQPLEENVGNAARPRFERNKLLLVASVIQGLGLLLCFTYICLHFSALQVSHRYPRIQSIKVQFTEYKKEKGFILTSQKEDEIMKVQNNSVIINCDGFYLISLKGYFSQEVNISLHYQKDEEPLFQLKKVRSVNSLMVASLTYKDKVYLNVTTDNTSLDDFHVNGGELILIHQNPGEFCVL
In words: cellular binding to human OX40L (flow cytometry; cells not given).

Assay [4] concerns the target T5, recombinant cynomolgus monkey CD80 (Novoprotein cat. #CP54) (cynomolgus monkey, UniProt A0A2K5V5I3 35-242).
T5 construct: also called cynomolgus CD80
T5 sequence: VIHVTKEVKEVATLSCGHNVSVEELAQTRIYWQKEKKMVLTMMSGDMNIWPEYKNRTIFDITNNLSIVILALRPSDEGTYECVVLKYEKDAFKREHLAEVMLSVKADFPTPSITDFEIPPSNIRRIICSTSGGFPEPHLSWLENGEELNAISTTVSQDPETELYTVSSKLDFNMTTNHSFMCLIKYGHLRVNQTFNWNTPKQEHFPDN
In words: SPR steady state, Biacore T200; binder captured by anti-human IgG Fc, CD80 in solution. The source says:
(§1) Goat anti-human IgG Fc (Jackson ImmunoResearch Goat anti-human IgG Fc Antibody, cat. #109-005-098), immobilized onto Biacore CM5 sensor chips, was used to capture experimental CTLA4_anti-OX40L fusion proteins or CTLA4-Ig reference proteins via their Fc regions. Recombinant CD80 proteins (human CD80, Novoprotein cat. #CK61; cynomolgus monkey CD80, Novoprotein cat. #CP54) and CD86 proteins (human CD86, Novoprotein . . . #C404) were bound to this surface at a range of concentrations. The response at steady state was measured with a Biacore T200 instrument (GE Healthcare) and plotted against the concentration of antibody and fit to a 1:1 binding model. The steady state KD was determined as the antibody concentration at a response equal to half the maximal response (Rₘₐₓ).
(§2) Binding affinity to human and cynomolgus CD80 and CD86 was determined for CTLA4_anti OX40L fusion proteins and reference CTLA4-Ig proteins using steady state affinity assays as described in section 1.1.8 of Example 1.

Assay [5] concerns the target T1, recombinant human OX40L protein (R&D …). Put plainly: SPR steady state, Biacore T200; OX40L immobilised on CM5, fusion protein in solution. As to the method:
(§3) Recombinant OX40L proteins (human OX40L protein, R&D systems, cat. #1054-OX; cynomolgus monkey OX40L, Novoprotein cat. #CP72) were immobilized onto Biacore CM5 sensor chips and anti-OX40L antibodies were bound to this surface at a range of concentrations. The response at steady state was measured with a Biacore T200 instrument (GE Healthcare) and plotted against the concentration of antibody and fit to a 1:1 binding model. The steady state KD was determined as the antibody concentration at a response equal to half the maximal response (Rₘₐₓ).
Background: SPR reads the build-up and loss of mass on a sensor chip optically.

The target in assay [6] is T6, recombinant cynomolgus monkey CD86 (Novoprotein cat. #CP41) (cynomolgus monkey, UniProt A0A2K5TTJ8 18-241).
T6 construct: also called cynomolgus CD86
T6 sequence: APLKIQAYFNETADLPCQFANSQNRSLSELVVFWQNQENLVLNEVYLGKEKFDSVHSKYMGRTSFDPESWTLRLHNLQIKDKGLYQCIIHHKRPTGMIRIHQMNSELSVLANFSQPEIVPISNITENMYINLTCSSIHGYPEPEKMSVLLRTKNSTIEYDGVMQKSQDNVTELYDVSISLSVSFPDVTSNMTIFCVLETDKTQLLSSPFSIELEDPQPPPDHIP
Put plainly: BLI steady state, Octet RED96; binder captured on AHC biosensors, cynomolgus CD86 in solution. As to the method:
Cynomolgus monkey CD86 (Novoprotein cat. #CP41) steady-state affinity was measured with an Octet RED96 instrument (ForteBio) in a BLI assay. The Fc region of experimental CTLA4_anti-OX40L fusion proteins or of CTLA4-Ig reference protein was captured using anti-human IgG Fc Capture (AHC) Biosensors (ForteBio, cat. #18-5060). Recombinant cynomolgus monkey CD86 was bound to this surface at a range of concentrations. The response at steady state was plotted against the concentration of recombinant protein and fit to a 1:1 binding model. The steady state KD was determined as the recombinant protein concentration at a response equal to half the maximal response (Rₘₐₓ).
as §2
In general terms: BLI is a label-free optical method that tracks binding on a fibre tip over time.

The target in assay [7] is T7, recombinant human CD80 (Novoprotein cat. #CK61) (human, UniProt P33681 35-242).
T7 construct: Bought soluble protein; also called B7.1
T7 sequence: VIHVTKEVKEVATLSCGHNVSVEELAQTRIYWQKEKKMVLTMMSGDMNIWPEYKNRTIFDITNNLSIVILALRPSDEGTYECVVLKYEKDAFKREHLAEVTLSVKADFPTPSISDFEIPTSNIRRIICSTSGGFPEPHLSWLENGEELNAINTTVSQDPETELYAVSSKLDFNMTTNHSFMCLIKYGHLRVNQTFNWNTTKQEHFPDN
In words: SPR steady state, Biacore T200; binder captured by anti-human IgG Fc, CD80 in solution; first number of the cell: human CD80.
Description: as §1

Assay [8] has as its target T8, recombinant human CD86 (Novoprotein #C404) (human, UniProt P42081 24-247).
T8 construct: Bought soluble protein; also called B7.2
T8 sequence: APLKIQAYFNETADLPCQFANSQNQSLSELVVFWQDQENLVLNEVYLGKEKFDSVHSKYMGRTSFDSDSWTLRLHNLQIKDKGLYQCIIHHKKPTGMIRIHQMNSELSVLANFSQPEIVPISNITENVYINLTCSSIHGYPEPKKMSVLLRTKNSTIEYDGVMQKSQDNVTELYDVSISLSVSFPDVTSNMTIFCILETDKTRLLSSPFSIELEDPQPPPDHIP
In words: SPR steady state, Biacore T200; binder captured by anti-human IgG Fc, CD86 in solution; second number of the cell: human CD86.
Description: as §1, §2

The target of assay [9] is T1, recombinant human OX40L protein (R&D …). In words: SPR steady state affinity to human OX40L. As to the method: as §3
Assay [10] concerns the target T4, full-length human OX40L on the cell …. In words: cellular binding to human OX40L (flow cytometry).
Assay [11] deals with T1, recombinant human OX40L protein (R&D …). Put plainly: SPR steady state affinity to human OX40L; second of two numbers in the cell. As to the method:
as §3

B1: CTLA4_anti OX40L fusion protein 67B06 (Fc fusion)
heavy: [sequence of about 120 residues not given]EPKSSDKTHTCPPCPAPPVAGPSVFLFPPKPKDTLMISRTPEVTCVVVDVSHEDPEVKFNWYVDGVEVHNAKTKPREEQYNSTYRVVSVLTVLHQDWLNGKEYKCAVSNKALPSSIEKTISKAKGQPREPQVYTLPPSREEMTKNQVSLTCLVKGFYPSDIAVEWESNGQPENNYKTTPPVLDSDGSFFLYSKLTVDKSRWQQGNVFSCSVMHEALHNHYTQKSLSLSPGAGGGGSGGGGSGGGGSQLQLQESGPGLVKPSETLSLTCSVSGGSISTSSYYWGWIRQPPGKGLEWSGSIYYSGSTYYRPSLQGRATISVDTSKNQFSLKLTSVTAADTAVYYCARHRGSYFFDIWGLGTLVTVSSASTKGPSVFPLAPSSKSTSGGTAALGCLVKDYFPEPVTVSWNSGALTSGVHTFPAVLQSSGLYSLSSVVTVPSSSLGTQTYICNVNHKPSNTKVDKRVEPKSC
light: SYELTQPLSVSVALGQTARMTCGGSDIENKNVHWYQQKPGQAPVLVIHRDNNRPSGIPERFSGSNSGNTATLTISRAQAGDEADYYCQVRDSNIVVFGGGTKLTVLGQPKAAPSVTLFPPSSEELQANKATLVCLISDFYPGAVTVAWKADSSPVKAGVETTTPSKQSNNKYAASSYLSLTPEQWKSHKSYSCQVTHEGSTVEKTVAPTECS
notes: also called 67B06(1); 67B06 (1)
As to B1, the “Primary T cell activation assay IC50” value in assay [1] was 6.4 nM. Also, the “OX40L neutralization/OX40-HEK Reporter IC50” value in the assay with AVI-GST-His6-hOX40L stood at 7.3 nM. The binding result in assay [2] is recorded as “binds”. The EC50 (usually the concentration giving half of the maximal effect) in assay [3] was 1.5 nM. Moreover, the Kd – broadly, a measure of binding affinity in units of concentration – in assay [4] stood at 486 nM; in assay [5], 27.6 nM; in assay [6], 770 nM; in assay [7], 538 nM; in assay [8] it was 670 nM.

B2: CTLA4-Ig (Ref3_CTLA4Ig) (Fc fusion)
chain: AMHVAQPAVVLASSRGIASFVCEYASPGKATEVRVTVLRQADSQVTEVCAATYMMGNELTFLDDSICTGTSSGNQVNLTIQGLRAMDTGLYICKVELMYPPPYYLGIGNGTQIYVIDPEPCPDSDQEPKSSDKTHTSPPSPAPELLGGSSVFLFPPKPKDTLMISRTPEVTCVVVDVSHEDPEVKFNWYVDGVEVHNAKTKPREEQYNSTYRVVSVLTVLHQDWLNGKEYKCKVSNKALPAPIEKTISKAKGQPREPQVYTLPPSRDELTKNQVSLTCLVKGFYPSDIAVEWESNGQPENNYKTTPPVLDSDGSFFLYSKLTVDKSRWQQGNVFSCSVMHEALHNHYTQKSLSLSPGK
Take B2: the binding result in assay [9] and in assay [10] was “no binding” each time. The Kd amounted to 433 nM in assay [4], 910 nM in assay [6], 450 nM in assay [7] and 663 nM in assay [8].

B3: CTLA4_anti OX40L fusion protein 89B09 (Fc fusion)
heavy: [sequence of about 120 residues not given]EPKSSDKTHTCPPCPAPPVAGPSVFLFPPKPKDTLMISRTPEVTCVVVDVSHEDPEVKFNWYVDGVEVHNAKTKPREEQYNSTYRVVSVLTVLHQDWLNGKEYKCAVSNKALPSSIEKTISKAKGQPREPQVYTLPPSREEMTKNQVSLTCLVKGFYPSDIAVEWESNGQPENNYKTTPPVLDSDGSFFLYSKLTVDKSRWQQGNVFSCSVMHEALHNHYTQKSLSLSPGAGGGGSGGGGSGGGGSEVQLVESGPGLVKPSETLSLTCTVSGVSIRSNGYYWGWIRQSPGKGLEWIGNMDYSGTYQNPSLTSRVTISGDASKNQFSLKLRSVTAADTAVYFCARERSNNWYPIDYWGQGTLVTVSSASTKGPSVFPLAPSSKSTSGGTAALGCLVKDYFPEPVTVSWNSGALTSGVHTFPAVLQSSGLYSLSSVVTVPSSSLGTQTYICNVNHKPSNTKVDKRVEPKSC
light: SSELTQDPAVSVALGQTVRITCQGDSVRRFFAHWYQQKPGQAPILVISGKDTRPSGIPDRFSGSISGNTASLTITGAQAEDEADYYCNSRDSSGYLVLFGGGTKLTVLGQPKAAPSVTLFPPSSEELQANKATLVCLISDFYPGAVTVAWKADSSPVKAGVETTTPSKQSNNKYAASSYLSLTPEQWKSHKSYSCQVTHEGSTVEKTVAPTECS
notes: also called 89B09(1); 89B09 (1)
B3: in assay [1], the “Primary T cell activation assay IC50” value amounted to 5.4 nM. In the assay with AVI-GST-His6-hOX40L, the “OX40L neutralization/OX40-HEK Reporter IC50” value amounted to 6.4 nM. The binding result in assay [2] is reported as “binds”. For the same molecule, the Kd in assay [11] came to 53.1 nM; in assay [4], 474 nM; in [5], 71.4 nM; in assay [6], 750 nM; in [7], 540 nM; in [8] it was 654 nM. Besides, in [3], the EC50 was found to be 4.1 nM.
